Experimental data as given in PMC4747173.
Results are given in words; binding and its absence hold for the method and conditions named. In cells and extracts the contact can be indirect. Some results given as binding are weak or reduced against the parent protein; the word gives no strength.

Amino acid sequences for entries named in this document (tags omitted).
UniProt O14777: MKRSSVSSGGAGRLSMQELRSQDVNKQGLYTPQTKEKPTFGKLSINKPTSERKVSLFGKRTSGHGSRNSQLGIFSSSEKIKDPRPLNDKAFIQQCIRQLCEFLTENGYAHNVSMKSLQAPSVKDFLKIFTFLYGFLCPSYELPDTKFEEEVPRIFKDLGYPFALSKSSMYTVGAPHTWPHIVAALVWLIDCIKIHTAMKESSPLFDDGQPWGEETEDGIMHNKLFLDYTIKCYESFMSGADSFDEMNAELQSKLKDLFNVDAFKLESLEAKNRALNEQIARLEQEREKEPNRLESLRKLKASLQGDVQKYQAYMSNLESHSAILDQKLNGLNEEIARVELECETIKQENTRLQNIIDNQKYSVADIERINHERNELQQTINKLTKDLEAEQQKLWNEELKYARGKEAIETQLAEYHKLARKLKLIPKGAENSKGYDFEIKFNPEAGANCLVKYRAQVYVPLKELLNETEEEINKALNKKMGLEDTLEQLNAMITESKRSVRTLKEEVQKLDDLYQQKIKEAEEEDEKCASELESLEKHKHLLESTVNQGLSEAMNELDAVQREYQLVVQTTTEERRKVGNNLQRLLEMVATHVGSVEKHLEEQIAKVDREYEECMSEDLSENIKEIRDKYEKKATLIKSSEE

Columns and labels:
Test in all cases: co-IP; 293T cells co-transfected with tagged constructs, lysates after 24 hr, immunoprecipitation with anti-Flag antibody, Western blot; for Hec1 and PP1α with or without co-expressed ASPP1/2 (WT or mRVXF)
[1] = molecular target: T1, FH-ASPP2-WT (transfected in 293T cells) (UniProt Q13625)
T1 sequence: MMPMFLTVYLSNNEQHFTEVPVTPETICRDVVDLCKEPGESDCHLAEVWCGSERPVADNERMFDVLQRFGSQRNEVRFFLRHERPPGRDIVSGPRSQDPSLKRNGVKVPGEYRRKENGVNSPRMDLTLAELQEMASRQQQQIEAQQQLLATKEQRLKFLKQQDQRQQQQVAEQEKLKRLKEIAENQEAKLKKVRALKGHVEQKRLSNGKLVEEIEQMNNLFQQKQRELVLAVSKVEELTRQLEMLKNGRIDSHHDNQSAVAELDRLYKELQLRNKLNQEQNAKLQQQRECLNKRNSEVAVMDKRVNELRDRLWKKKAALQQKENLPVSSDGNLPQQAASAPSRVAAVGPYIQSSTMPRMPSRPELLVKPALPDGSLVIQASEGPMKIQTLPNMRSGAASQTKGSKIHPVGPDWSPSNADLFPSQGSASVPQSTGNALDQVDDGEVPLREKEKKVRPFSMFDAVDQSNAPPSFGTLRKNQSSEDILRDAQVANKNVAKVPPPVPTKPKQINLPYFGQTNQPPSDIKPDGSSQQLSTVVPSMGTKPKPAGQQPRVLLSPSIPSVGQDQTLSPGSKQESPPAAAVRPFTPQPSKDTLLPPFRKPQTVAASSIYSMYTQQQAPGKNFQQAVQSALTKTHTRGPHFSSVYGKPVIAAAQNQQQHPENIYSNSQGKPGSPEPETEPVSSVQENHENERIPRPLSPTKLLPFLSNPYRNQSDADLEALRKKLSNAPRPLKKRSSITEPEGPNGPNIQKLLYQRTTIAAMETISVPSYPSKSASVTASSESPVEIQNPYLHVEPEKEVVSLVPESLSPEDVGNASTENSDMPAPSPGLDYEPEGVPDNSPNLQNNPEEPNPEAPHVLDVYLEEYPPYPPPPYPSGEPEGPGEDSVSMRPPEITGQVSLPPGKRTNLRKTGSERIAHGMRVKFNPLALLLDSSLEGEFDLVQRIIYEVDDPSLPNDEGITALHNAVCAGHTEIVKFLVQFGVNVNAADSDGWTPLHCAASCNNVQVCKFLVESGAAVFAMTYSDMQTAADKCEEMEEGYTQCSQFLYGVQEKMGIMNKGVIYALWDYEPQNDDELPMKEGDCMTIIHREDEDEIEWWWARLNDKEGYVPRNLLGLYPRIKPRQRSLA

[2] = molecular target: T2, FH-ASPP1 (transfected in 293T cells) (UniProt Q96KQ4)
T2 sequence: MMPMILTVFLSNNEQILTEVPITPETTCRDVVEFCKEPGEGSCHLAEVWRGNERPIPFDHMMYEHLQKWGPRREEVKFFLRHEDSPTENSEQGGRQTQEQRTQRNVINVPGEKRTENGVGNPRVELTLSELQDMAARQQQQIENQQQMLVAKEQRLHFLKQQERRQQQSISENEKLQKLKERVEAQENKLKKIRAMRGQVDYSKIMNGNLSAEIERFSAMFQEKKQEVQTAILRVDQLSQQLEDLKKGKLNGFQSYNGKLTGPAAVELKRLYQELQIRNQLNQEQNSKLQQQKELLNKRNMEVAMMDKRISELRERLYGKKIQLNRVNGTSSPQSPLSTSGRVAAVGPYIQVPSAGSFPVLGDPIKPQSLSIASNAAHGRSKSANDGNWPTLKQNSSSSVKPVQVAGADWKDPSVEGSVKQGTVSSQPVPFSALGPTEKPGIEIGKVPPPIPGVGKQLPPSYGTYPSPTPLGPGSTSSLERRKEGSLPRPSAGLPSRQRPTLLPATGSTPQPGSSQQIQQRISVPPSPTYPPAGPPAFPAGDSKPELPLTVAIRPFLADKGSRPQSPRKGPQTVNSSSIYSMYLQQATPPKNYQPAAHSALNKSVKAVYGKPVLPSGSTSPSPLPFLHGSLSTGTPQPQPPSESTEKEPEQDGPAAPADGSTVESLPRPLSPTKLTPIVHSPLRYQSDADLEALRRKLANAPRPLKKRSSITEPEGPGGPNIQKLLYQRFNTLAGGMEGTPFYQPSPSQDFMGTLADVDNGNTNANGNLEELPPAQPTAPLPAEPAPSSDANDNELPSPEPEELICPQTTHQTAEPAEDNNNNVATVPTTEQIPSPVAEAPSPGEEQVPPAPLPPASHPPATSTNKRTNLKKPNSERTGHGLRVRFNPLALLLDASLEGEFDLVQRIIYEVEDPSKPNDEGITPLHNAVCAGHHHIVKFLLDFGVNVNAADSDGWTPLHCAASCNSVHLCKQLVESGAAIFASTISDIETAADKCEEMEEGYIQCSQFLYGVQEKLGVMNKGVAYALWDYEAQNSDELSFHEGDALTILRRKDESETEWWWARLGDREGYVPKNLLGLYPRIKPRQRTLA

[3] = molecular target: T3, FH-iASPP (transfected in 293T cells) (UniProt Q8WUF5)
T3 sequence: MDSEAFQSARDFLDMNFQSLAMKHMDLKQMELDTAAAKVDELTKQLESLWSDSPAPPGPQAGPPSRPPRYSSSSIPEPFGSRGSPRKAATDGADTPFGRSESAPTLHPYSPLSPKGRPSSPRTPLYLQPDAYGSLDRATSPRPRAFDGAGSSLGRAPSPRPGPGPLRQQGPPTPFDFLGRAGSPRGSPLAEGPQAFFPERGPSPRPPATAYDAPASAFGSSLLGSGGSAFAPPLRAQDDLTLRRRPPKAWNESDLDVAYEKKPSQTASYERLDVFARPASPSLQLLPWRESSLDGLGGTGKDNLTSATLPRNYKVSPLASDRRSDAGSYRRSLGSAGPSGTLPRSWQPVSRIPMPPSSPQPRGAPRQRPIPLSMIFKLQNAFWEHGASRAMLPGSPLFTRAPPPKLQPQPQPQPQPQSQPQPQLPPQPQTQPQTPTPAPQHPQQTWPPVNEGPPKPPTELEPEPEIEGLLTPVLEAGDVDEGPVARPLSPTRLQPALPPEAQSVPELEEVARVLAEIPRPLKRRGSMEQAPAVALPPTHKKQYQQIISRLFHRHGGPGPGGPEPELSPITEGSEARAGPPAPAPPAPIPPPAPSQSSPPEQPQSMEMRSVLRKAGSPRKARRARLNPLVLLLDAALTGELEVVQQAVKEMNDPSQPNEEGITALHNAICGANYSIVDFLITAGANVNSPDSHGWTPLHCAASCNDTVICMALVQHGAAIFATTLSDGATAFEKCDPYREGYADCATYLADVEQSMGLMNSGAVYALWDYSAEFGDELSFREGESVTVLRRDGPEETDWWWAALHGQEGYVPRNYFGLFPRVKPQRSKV

Myc-Hec1 (transfected in 293T cells) (from UniProt O14777 1-642)
binding [1]: binds
binding [2]: binds
binding [3]: no binding
